The antibiotic and cytotoxicity screens of Wong et al. (2023)
The other results are listed elsewhere or left out.

What was measured:
HSkMC = human skeletal muscle cells; assay: cytotoxicity call (relative viability < 0.9); settings: 10 µM
HepG2 = assay: cytotoxicity call (relative viability < 0.9); settings: 10 µM
S. aureus RN4220 = assay: growth inhibition call (relative growth <= 0.2); settings: 50 µM

SMILES: C[C@@H]1CN([C@H](C)CO)C(=O)c2cc(NS(=O)(=O)c3ccc(F)cc3)ccc2O[C@@H](C)CCCCO[C@H]1CN(C)Cc1ccc(C(F)(F)F)cc1
- cytotoxicity call (HSkMC): inactive
- cytotoxicity call (HepG2): inactive
- growth inhibition call (S. aureus RN4220): inactive

SMILES: C[C@H](CO)N1C[C@H](C)[C@@H](CN(C)Cc2ccc3c(c2)OCCN3C)OCc2cnnn2CCCC1=O
- cytotoxicity call (HSkMC): inactive
- cytotoxicity call (HepG2): inactive
- growth inhibition call (S. aureus RN4220): inactive

SMILES: O=C(C[C@@H]1C[C@@H]2c3cc(NS(=O)(=O)c4ccc(F)cc4)ccc3O[C@@H]2[C@H](CO)O1)NCc1cccc(F)c1
- cytotoxicity call (HSkMC): inactive
- cytotoxicity call (HepG2): inactive
- growth inhibition call (S. aureus RN4220): inactive

SMILES: C[C@H]1CN([C@@H](C)CO)S(=O)(=O)c2ccc(C#Cc3ccccc3)cc2O[C@@H]1CN(C)C(=O)CN(C)C
- cytotoxicity call (HSkMC): inactive
- cytotoxicity call (HepG2): inactive
- growth inhibition call (S. aureus RN4220): inactive

SMILES: N=C(N)NS(=O)(=O)c1ccc(N)cc1
- cytotoxicity call (HSkMC): inactive
- cytotoxicity call (HepG2): inactive
- growth inhibition call (S. aureus RN4220): inactive

SMILES: COc1ccccc1-c1cccc(-c2nc(C(=O)N3CCCCC3)cc3c2[C@@H](CCO)N([S@@](=O)C(C)(C)C)C3)c1
- cytotoxicity call (HSkMC): inactive
- cytotoxicity call (HepG2): inactive
- growth inhibition call (S. aureus RN4220): inactive

SMILES: C[C@@H]1CN([C@@H](C)CO)C(=O)c2cc(NC(=O)CCCN(C)C)ccc2O[C@@H]1CN(C)S(=O)(=O)c1ccccc1
- cytotoxicity call (HSkMC): inactive
- cytotoxicity call (HepG2): inactive
- growth inhibition call (S. aureus RN4220): inactive

SMILES: COc1cc(N2CCC3(CC2)CNC(=O)CO3)ncn1
- cytotoxicity call (HSkMC): inactive
- cytotoxicity call (HepG2): inactive
- growth inhibition call (S. aureus RN4220): inactive

SMILES: C[C@H](CO)N1C[C@H](C)[C@@H](CN(C)S(=O)(=O)c2ccc(Cl)cc2)Oc2c(NS(=O)(=O)c3cn(C)cn3)cccc2C1=O
- cytotoxicity call (HSkMC): inactive
- cytotoxicity call (HepG2): inactive
- growth inhibition call (S. aureus RN4220): inactive

SMILES: C[C@@H]1CN([C@H](C)CO)C(=O)CCCn2cc(nn2)CO[C@@H]1CN(C)C(=O)Nc1ccc(C(C)(C)C)cc1
- cytotoxicity call (HSkMC): inactive
- cytotoxicity call (HepG2): inactive
- growth inhibition call (S. aureus RN4220): inactive

SMILES: COc1ccc(S(=O)(=O)Nc2ccc3c(c2)CC(=O)N([C@H](C)CO)C[C@H](C)[C@@H](CN(C)Cc2ccc(Oc4ccccc4)cc2)O3)cc1
- cytotoxicity call (HSkMC): inactive
- cytotoxicity call (HepG2): inactive
- growth inhibition call (S. aureus RN4220): inactive

SMILES: Cc1noc(C)c1NC(=O)Nc1ccc2c(c1)C(=O)N([C@@H](C)CO)C[C@@H](C)[C@H](CN(C)C(=O)Nc1cccc3ccccc13)OCCCC[C@H](C)O2
- cytotoxicity call (HSkMC): inactive
- cytotoxicity call (HepG2): inactive
- growth inhibition call (S. aureus RN4220): inactive

SMILES: CS(=O)(=O)n1cc2c(n1)CN([C@H]1CO[C@H](c3cc(F)ccc3F)[C@@H](N)C1)C2
- cytotoxicity call (HSkMC): inactive
- cytotoxicity call (HepG2): inactive
- growth inhibition call (S. aureus RN4220): inactive

SMILES: C[C@@H]1CN([C@H](C)CO)C(=O)c2cc(NS(=O)(=O)c3ccccc3)ccc2O[C@@H](C)CCCCO[C@H]1CN(C)C(=O)Nc1ccc(F)cc1
- cytotoxicity call (HSkMC): inactive
- cytotoxicity call (HepG2): inactive
- growth inhibition call (S. aureus RN4220): inactive

SMILES: COc1ccc(CN(C)C[C@@H]2Oc3ccc(NS(=O)(=O)c4c(C)noc4C)cc3C(=O)N([C@H](C)CO)C[C@H]2C)cc1
- cytotoxicity call (HSkMC): inactive
- cytotoxicity call (HepG2): inactive
- growth inhibition call (S. aureus RN4220): inactive

SMILES: C[C@@H]1CCCCO[C@H](CN(C)C(=O)CCCN(C)C)[C@H](C)CN([C@H](C)CO)C(=O)c2cc(N(C)C)ccc2O1
- cytotoxicity call (HSkMC): inactive
- cytotoxicity call (HepG2): inactive
- growth inhibition call (S. aureus RN4220): inactive

SMILES: C[C@@H]1CCCCO[C@H](CN(C)Cc2ccc(C(F)(F)F)cc2)[C@@H](C)CN([C@@H](C)CO)C(=O)c2cc(NC(=O)CCC(F)(F)F)ccc2O1
- cytotoxicity call (HSkMC): inactive
- cytotoxicity call (HepG2): inactive
- growth inhibition call (S. aureus RN4220): inactive

SMILES: C[C@H]1CN([C@@H](C)CO)C(=O)Cc2cc(NC(=O)Cn3cnnn3)ccc2O[C@@H]1CN(C)C(=O)NC1CCCCC1
- cytotoxicity call (HSkMC): inactive
- cytotoxicity call (HepG2): inactive
- growth inhibition call (S. aureus RN4220): inactive

SMILES: Cc1noc(C)c1NC(=O)N(C)C[C@@H]1Oc2ccc(NC(=O)c3ccncc3)cc2C(=O)N([C@@H](C)CO)C[C@@H]1C
- cytotoxicity call (HSkMC): inactive
- cytotoxicity call (HepG2): inactive
- growth inhibition call (S. aureus RN4220): inactive

SMILES: CN1C(=O)c2cc(NC(=O)c3cnccn3)ccc2OC[C@H]2O[C@@H](CC(=O)N[C@H]3CCN(Cc4ccccc4)C3)CC[C@H]21
- cytotoxicity call (HSkMC): inactive
- cytotoxicity call (HepG2): inactive
- growth inhibition call (S. aureus RN4220): inactive

SMILES: C=CCNC(=O)[C@H]1[C@@H]2C(=O)O[C@@H](c3ccccc3)[C@@H](c3ccccc3)N2[C@@H](c2ccc(O)cc2)[C@]12C(=O)Nc1ccc(C#Cc3ccc(OC)cc3)cc12
- cytotoxicity call (HSkMC): inactive
- cytotoxicity call (HepG2): inactive
- growth inhibition call (S. aureus RN4220): inactive

SMILES: C/C=C(/C)C(=O)O[C@H]1[C@@H](OC(C)=O)[C@@]2(CO)[C@@H](O)C[C@@]3(C)C(=CC[C@H]4[C@@]5(C)CC[C@@H](O[C@H]6O[C@H](C(=O)O)[C@@H](O[C@H]7O[C@@H](CO)[C@@H](O)[C@@H](O)[C@@H]7O)[C@@H](O)[C@@H]6O[C@H]6O[C@@H](CO)[C@@H](O)[C@@H](O)[C@@H]6O)[C@@](C)(CO)[C@@H]5CC[C@]43C)[C@@H]2CC1(C)C
- cytotoxicity call (HSkMC): active
- cytotoxicity call (HepG2): active
- growth inhibition call (S. aureus RN4220): inactive
